In patent US20240400670A1 (JIANGSU HENGRUI PHARMACEUTICALS, published 2024):
Changes are numbered by the printed parent chain.

T1: human IL-23 (Sino Biological, CT048-H08H) (human, UniProt Q9NPF7 20-189; P29460 23-328)
T1 construct: also called human IL-23 protein; Human IL-23 p19
T1 sequence (looked up) 1: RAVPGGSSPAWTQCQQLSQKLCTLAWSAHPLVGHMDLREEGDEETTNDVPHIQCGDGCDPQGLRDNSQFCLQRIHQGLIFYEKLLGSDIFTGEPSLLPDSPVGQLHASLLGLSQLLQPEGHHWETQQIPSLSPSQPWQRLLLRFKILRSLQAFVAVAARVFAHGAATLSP
T1 sequence (looked up) 2: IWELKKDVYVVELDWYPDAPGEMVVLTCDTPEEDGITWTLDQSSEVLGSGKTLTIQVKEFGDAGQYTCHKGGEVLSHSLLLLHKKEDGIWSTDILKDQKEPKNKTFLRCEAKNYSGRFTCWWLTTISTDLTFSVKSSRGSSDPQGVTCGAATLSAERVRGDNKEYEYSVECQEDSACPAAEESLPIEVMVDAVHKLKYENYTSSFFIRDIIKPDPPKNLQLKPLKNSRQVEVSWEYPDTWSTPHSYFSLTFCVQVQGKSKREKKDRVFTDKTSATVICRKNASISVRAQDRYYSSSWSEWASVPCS

T2: human APRIL (R&D Systems, 5860-AP-010/CF) (human, UniProt O75888 105-250, limits assumed)
T2 construct: the B cell assay names 'R&D Systems, 5860-AP'; also called APRIL protein
T2 sequence (looked up): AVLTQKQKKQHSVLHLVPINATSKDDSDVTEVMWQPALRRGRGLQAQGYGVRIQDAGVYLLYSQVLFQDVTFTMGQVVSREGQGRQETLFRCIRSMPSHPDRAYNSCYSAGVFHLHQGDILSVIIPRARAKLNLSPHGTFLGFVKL

T3: mouse APRIL (R&D Systems, 7907-AP/CF) (mouse, UniProt Q9D777 96-241, limits assumed)
T3 sequence (looked up): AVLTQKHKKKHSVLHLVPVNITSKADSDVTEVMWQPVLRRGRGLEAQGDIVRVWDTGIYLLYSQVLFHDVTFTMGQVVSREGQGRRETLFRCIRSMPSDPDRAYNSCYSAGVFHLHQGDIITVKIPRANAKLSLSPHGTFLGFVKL

B1: Hu29-19T (other)
heavy: STSCREEQGEFYDHLLRDCISCASICGQHPKQCAAFCEGGGGSGGGGSGGGGSQVTLKESGPVLVKPTETLTLTCTVSGFSLTNYAISWVRQPPGKGLEWLGVIWTGGGTNYNSGIKSRLTISKDNSKSQVVLTMTNMDPVDTARYYCVREGDYGSYAGAMDYWGQGTTVTVSSASTKGPSVFPLAPSSKSTSGGTAALGCLVKDYFPEPVTVSWNSGALTSGVHTFPAVLQSSGLYSLSSVVTVPSSSLGTQTYICNVNHKPSNTKVDKKV[here human IgG1 Fc with changes without letters]GGGSSTSCREEQGEFYDHLLRDCISCASICGQHPKQCAAFCESS
light: DIVLTQSPDSLAVSLGERATINCRASESVDYYGISSMHWFQQKPGQPPKLLIYRASNLESGIPARFSGSGSRTDFTLTISSLQAEDVAVYYCQQANKDPYTFGGGTKVEIKRTVAAPSVFIFPPSDEQLKSGTASVVCLLNNFYPREAKVQWKVDNALQSGNSQESVTEQDSKDSTYSLSSTLTLSKADYEKHKVYACEVTHQGLSSPVTKSFNRGEC
notes: anti-IL23 IgG1 with a TACI polypeptide at the N- and the C-terminus of each heavy chain; also called anti-IL23 antibody fusion protein
B2: Hu29-24T (other)
heavy: STSCREEQGEFYDHLLRDCISCASICGQHPKQCAAFCEGGGGSGGGGSGGGGSQVTLKESGPVLVKPTETLTLTCTVSGFSLTQYAISWVRQPPGKGLEWLGVIWTGGGTNYNSGIKSRLTISKDNSKSQVVLTMTNMDPVDTARYYCVREGDYGSYAGAMDYWGQGTTVTVSSASTKGPSVFPLAPSSKSTSGGTAALGCLVKDYFPEPVTVSWNSGALTSGVHTFPAVLQSSGLYSLSSVVTVPSSSLGTQTYICNVNHKPSNTKVDKKV[here human IgG1 Fc with changes without letters]GGGSSTSCREEQGEFYDHLLRDCISCASICGQHPKQCAAFCESS
light: B1 light with E17Q
notes: as for B1

Legend:
[1] = target: cynomolgus monkey IL-23 (Acro Biosystems, ILB-CM52W8) (cynomolgus monkey, UniProt H6WS56 20-189); test: SPR (Biacore), Protein A capture of sample, 1:1 model
Description: (§1) A certain amount of test sample was subjected to affinity capture by a biosensor chip Protein A (GE, 29127556), and then antigens at a series of concentration gradients were allowed to flow on the surface of the chip. The reaction signals were detected in real time by using Biacore (GE, 8 K) to obtain association and dissociation curves. After the dissociation was completed for each cycle, the biochip was washed and regenerated with a 10 mM glycine-hydrochloric acid solution at pH 1.5 (GE, BR-1003-54). Fitting was performed based on the experimental data using BlAevaluation version 4.1 software with a 1:1 model, and affinity values were obtained.

[2] = target: T1, human IL-23 (Sino Biological, …); test: as above
Description: as §1

[3] = target: T4, human BAFF (Sino Biological, 10056-HNCH) (human, UniProt Q9Y275 in part); test: as above
T4 construct: also called BAFF protein
Description: as §1

[4] = target: cynomolgus monkey BAFF (Kactus, BAF-CM412) (cynomolgus monkey, UniProt A0A2K5V2X4 134-285); test: as above
Description: as §1

[5] = target: mouse BAFF (Acro Biosystems, BAF-M521y) (mouse, UniProt Q9WU72 127-309, limits assumed); test: as above
Sequence of UniProt Q9WU72 (Q9WU72 127-309 limits assumed): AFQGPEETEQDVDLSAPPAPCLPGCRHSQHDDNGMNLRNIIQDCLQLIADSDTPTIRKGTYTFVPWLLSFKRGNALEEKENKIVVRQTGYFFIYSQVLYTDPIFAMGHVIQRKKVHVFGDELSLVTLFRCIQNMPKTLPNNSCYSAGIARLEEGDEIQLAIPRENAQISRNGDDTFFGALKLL
Description: as §1

[6] = target: T2, human APRIL (R&D Systems, …); test: as above
Description: as §1

[7] = target: cynomolgus monkey APRIL (Kactus, APR-CM410B) (cynomolgus monkey); test: as above
Description: as §1

[8] = target: T3, mouse APRIL (R&D Systems, 7907-AP/CF); test: as above
Description: as §1

[9] = target: T4, human BAFF (Sino Biological, 10056-HNCH); test: competition ELISA, blocks BAFF/BCMA; BCMA coated, biotin-BAFF
T4 sequence (Q9Y275 134-285 limits assumed): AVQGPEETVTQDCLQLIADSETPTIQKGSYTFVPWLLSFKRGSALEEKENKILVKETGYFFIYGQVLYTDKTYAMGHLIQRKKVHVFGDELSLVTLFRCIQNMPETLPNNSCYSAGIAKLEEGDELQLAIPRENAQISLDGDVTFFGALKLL
Description: (§2) The specific procedures are as follows:
(§3) The receptor protein was diluted to 2 μg/mL with a PBS (BasalMedia, B320) buffer at pH 7.4 and added to a 96-well microplate (Corning, 3590) at 100 μL/well. The plate was incubated at 4° C. overnight. After the liquid was discarded, 1 % Casein blocking solution (Thermo, 37528) was added at 200 μL/well for blocking, and the plate was incubated at 37° C. for 2 h. After the blocking was complete, the blocking solution was discarded, and the plate was washed 3 times with a PBST buffer (pH 7.4 PBS containing 0.1 % tween-20) for later use. After the biotin-labeled ligand protein at a fixed concentration was mixed with an antibody or fusion protein diluted in a gradient, the mixture was pre-incubated at 37° C. for 30 min and then added to the blocked microplate. The plate was incubated at 37° C. for 1.5 h. After the incubation was complete, the plate was washed 3 times with PBST. Streptavidin-HRP (Invitrogen, 434323, diluted at 1:4000) was added at 100 μL/well, and the plate was incubated at 37° C. for 1 h. The supernatant was removed. […] The absorbance values at 450 nm were taken using a microplate reader. Curves for the inhibition of binding of the ligands to the receptors were fitted using software, and the IC₅₀ values were calculated.

[10] = target: T2, human APRIL (R&D Systems, …); test: competition ELISA, blocks APRIL/BCMA; BCMA coated, biotin-APRIL
Description: as §2, §3

| Binder | Kd [1] | koff [1] | kon [1] | Kd [2] | koff [2] | kon [2] | Kd [3] | koff [3] | kon [3] | Kd [4] | koff [4] | kon [4] | Kd [5] | koff [5] | kon [5] | Kd [6] | koff [6] | kon [6] | Kd [7] | koff [7] | further results |
| --- | --- | --- | --- | --- | --- | --- | --- | --- | --- | --- | --- | --- | --- | --- | --- | --- | --- | --- | --- | --- | --- |
| B1 | 0.0718 nM | 0.00019 s⁻¹ | 2.65e+06 M⁻¹ s⁻¹ | 0.0169 nM | 4e-05 s⁻¹ | 2.37e+06 M⁻¹ s⁻¹ | 0.0224 nM | 7.08e-05 s⁻¹ | 3.16e+06 M⁻¹ s⁻¹ | 0.149 nM | 0.000101 s⁻¹ | 678000 M⁻¹ s⁻¹ | 0.0237 nM | 7.79e-05 s⁻¹ | 3.29e+06 M⁻¹ s⁻¹ | 0.0103 nM | 0.00189 s⁻¹ | 1.84e+08 M⁻¹ s⁻¹ | 0.0039 nM | 6.05e-05 s⁻¹ | kon [7]: 1.55e+07 M⁻¹ s⁻¹; Kd [8]: 0.018 nM; koff [8]: 0.00036 s⁻¹; kon [8]: 2e+07 M⁻¹ s⁻¹; IC50 [9]: 0.993 nM; IC50 [10]: 0.338 nM |
| B2 | 0.0605 nM | 0.00015 s⁻¹ | 2.47e+06 M⁻¹ s⁻¹ | 0.0145 nM | 4.22e-05 s⁻¹ | 2.91e+06 M⁻¹ s⁻¹ | 0.02 nM | 5e-05 s⁻¹ | 2.51e+06 M⁻¹ s⁻¹ | 0.0755 nM | 4.4e-05 s⁻¹ | 583000 M⁻¹ s⁻¹ | 0.0277 nM | 7.14e-05 s⁻¹ | 2.58e+06 M⁻¹ s⁻¹ | 0.0104 nM | 0.00224 s⁻¹ | 2.15e+08 M⁻¹ s⁻¹ | 0.0694 nM | 0.000498 s⁻¹ | kon [7]: 7.18e+06 M⁻¹ s⁻¹; Kd [8]: 0.02 nM; koff [8]: 0.000207 s⁻¹; kon [8]: 1.04e+07 M⁻¹ s⁻¹; IC50 [9]: 0.947 nM; IC50 [10]: 0.0827 nM |
